Article PMC4336329 (PLoS ONE, 2015)
Among all 310,000 compounds or so, about 2,200 (0.71%) showed an effect of 50% or more. Effects have a minus sign here. The list shows a part of the results.

Molecular target: human ether-à-go-go-related gene (hERG) potassium channel (human, UniProt Q12809)
Test: primary screen, population patch clamp on CHO cells stably expressing hERG

human ether-à-go-go-related gene (hERG) potassium channel, sequence (Q12809 whole entry, looked up): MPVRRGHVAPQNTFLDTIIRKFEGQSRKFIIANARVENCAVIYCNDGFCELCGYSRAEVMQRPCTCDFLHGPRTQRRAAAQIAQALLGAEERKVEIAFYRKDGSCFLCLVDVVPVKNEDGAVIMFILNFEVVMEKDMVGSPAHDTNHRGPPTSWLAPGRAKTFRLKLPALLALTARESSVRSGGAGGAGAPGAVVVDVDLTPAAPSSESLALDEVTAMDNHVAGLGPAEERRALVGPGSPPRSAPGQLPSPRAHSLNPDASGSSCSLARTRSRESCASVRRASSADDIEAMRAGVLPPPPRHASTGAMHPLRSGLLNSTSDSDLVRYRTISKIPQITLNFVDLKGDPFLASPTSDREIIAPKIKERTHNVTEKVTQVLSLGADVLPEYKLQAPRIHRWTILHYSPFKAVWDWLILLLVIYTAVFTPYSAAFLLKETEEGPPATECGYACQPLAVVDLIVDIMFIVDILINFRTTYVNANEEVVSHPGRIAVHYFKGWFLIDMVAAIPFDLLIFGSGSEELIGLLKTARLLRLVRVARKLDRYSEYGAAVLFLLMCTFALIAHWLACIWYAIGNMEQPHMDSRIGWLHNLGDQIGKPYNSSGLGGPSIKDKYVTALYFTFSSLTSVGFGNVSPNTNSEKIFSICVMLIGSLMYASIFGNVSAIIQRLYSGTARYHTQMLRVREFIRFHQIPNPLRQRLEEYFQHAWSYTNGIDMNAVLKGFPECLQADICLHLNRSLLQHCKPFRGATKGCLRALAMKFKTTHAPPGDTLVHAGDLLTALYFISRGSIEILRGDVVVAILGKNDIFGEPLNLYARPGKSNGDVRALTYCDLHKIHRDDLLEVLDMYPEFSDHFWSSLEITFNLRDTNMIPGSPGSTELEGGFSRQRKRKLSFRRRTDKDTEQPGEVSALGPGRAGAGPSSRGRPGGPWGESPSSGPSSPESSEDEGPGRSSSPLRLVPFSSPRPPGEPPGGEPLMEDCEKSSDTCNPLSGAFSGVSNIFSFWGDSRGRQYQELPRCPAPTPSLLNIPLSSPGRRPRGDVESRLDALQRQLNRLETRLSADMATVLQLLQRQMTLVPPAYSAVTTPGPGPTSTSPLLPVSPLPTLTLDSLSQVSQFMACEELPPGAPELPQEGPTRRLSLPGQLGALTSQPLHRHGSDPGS

Going from `CCNC(=O)COC(=O)/C=C/c1cccc(F)c1` to `O=C(COC(=O)/C=C/c1cccc([N+](=O)[O-])c1)NCCCN1CCCC1=O`, the “hERG current change (%, negative = inhibition) at 1uM” value rises from -1.08% to 7.23%.

Compared with `COC(=O)c1ccccc1N=C(SC)N(C)C`, `COC(=O)c1ccccc1NC(=O)c1ccc(F)cc1` is lower in “hERG current change (%, negative = inhibition) at 1uM” value: 10.3% for the first, 8.96% for the second.

First: Cc1ccc(N2C(=O)CC3(CC4C=CC3C4)C2=O)cc1 (centres unmarked)
Second: COc1ccc(CN2CCN(Cc3ccc(C)cc3)CC2)c(OC)c1.O=C(O)C(=O)O
The “hERG current change (%, negative = inhibition) at 1uM” value of the first is higher: 2.71% for the first, -18.9% for the second.

Compared with `CC(C)C(=O)Nc1nnc(Cc2c[nH]c3ccccc23)s1`, `CCC(=O)Nc1cc(-c2nnc(OC)c3ccccc23)ccc1N1CCOCC1` is lower in “hERG current change (%, negative = inhibition) at 1uM” value: 25% for the first, 7.12% for the second.

Going from `CN(C)S(=O)(=O)N1CCC(n2nccc2NC(=O)CCc2ccccc2)CC1` to `CN(C)S(=O)(=O)N(CC(=O)N1CCC(Cc2ccccc2)CC1)c1ccccc1`, the “hERG current change (%, negative = inhibition) at 1uM” value rises from 10.4% to 12.3%.

First: Cc1ccccc1-c1nc(C#N)c(N2CCCCC2)o1
Second: COc1ccc(NC(=O)COc2ccc3c(C)cc(=O)oc3c2)cc1S(=O)(=O)N1CCCCC1
The “hERG current change (%, negative = inhibition) at 1uM” value of the first is higher: 19.2% for the first, -8.82% for the second.

First: O=C1NC[C@H](Cc2ccc(O)cc2)N(CCc2cccc3ccccc23)C1=O
Second: COC(=O)c1nn(Cc2ccccc2)c(=O)c2ccccc12
The “hERG current change (%, negative = inhibition) at 1uM” value of the first is lower: 0.858% for the first, 1.42% for the second.

First: CC1CC(C)CN(C(=O)CSc2ccsc2[N+](=O)[O-])C1 (centres unmarked)
Second: CN(C)S(=O)(=O)N1CCN(CC(=O)Nc2ccc(F)cc2)CC1
The “hERG current change (%, negative = inhibition) at 1uM” value of the first is higher: 7.53% for the first, -17.2% for the second.

Compared with `O=S(=O)(Cc1ccc(Cl)cc1)Nc1ccc2c(c1)OCO2`, `COc1ccc(C(O)CNc2ccc(C)cc2)cc1` (centres unmarked) is lower in “hERG current change (%, negative = inhibition) at 1uM” value: 8.69% for the first, 3.93% for the second.

Compared with `COC(=O)c1cc(OC)c(OC)cc1NC(=S)NC(=O)c1ccco1`, `Cc1cc2occ(CC(=O)N(C)CC(=O)Nc3ccccc3C(F)(F)F)c2cc1C` is lower in “hERG current change (%, negative = inhibition) at 1uM” value: 17.7% for the first, 0.242% for the second.

Compared with `CCOc1cc(C2C(C#N)=C(N)Oc3cc(N)ccc32)ccc1O` (centres unmarked), `O=C(N/N=C/c1cc([N+](=O)[O-])ccc1O)c1cccc2cc[nH]c12` is lower in “hERG current change (%, negative = inhibition) at 1uM” value: 8.54% for the first, 4.18% for the second.

Compared with `COCCN1C2=C(COC(C)(C)C2)C(=S)NC1c1ccccc1` (centres unmarked), `CCCN=CC1=C(O)CC(c2ccccc2)CC1=O` (centres unmarked) is higher in “hERG current change (%, negative = inhibition) at 1uM” value: -0.297% for the first, 7.66% for the second.

First: CN(C(=O)c1ccccc1OC1CCN(S(C)(=O)=O)CC1)C1CCOC1 (centres unmarked)
Second: OCCC1CN(Cc2cccc3c2OCO3)CCN1C1CCCC1 (centres unmarked)
The “hERG current change (%, negative = inhibition) at 1uM” value of the first is higher: 8% for the first, -0.371% for the second.
